Results reported in article PMC6208770.
No constants are given. Whether binding was seen depends on the method and setting. In cells and extracts the contact can be indirect. Some results given as binding are weak or reduced against the parent protein; the word gives no strength. Sequences can lack the tags named with a protein.

Chains of the proteins cited; added tags and fusions are not shown.
UniProt P33993: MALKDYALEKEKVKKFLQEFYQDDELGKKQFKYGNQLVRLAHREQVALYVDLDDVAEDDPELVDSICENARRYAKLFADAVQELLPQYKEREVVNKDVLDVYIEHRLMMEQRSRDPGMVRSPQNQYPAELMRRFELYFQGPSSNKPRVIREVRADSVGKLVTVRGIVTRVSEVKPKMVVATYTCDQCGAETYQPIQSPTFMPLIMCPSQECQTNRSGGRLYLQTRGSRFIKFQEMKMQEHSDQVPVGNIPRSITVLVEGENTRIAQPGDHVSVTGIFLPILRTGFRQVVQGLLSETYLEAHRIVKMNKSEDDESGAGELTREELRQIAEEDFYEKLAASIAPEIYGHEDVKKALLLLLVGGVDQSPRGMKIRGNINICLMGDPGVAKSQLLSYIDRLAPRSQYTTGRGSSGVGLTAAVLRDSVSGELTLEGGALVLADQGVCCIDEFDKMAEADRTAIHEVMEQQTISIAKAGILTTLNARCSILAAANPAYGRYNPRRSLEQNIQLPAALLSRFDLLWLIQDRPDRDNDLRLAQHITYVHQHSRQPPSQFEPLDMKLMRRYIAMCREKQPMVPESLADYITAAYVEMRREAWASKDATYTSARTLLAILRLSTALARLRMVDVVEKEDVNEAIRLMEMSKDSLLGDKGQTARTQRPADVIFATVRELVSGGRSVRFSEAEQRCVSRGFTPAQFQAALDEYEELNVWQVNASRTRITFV

Experiments:
Experiment in all cases: co-IP; whole cell extracts of HEK293T cells transiently transfected with HA-OGT; immunoprecipitation of either OGT or MCM subunits; buffers without SDS, one wash with 300 mM NaCl; Western blot
[1] = target: T1, minichromosome maintenance protein MCM4 (human (endogenous in MCF7, HEK293T)) (UniProt P33991)
T1 sequence: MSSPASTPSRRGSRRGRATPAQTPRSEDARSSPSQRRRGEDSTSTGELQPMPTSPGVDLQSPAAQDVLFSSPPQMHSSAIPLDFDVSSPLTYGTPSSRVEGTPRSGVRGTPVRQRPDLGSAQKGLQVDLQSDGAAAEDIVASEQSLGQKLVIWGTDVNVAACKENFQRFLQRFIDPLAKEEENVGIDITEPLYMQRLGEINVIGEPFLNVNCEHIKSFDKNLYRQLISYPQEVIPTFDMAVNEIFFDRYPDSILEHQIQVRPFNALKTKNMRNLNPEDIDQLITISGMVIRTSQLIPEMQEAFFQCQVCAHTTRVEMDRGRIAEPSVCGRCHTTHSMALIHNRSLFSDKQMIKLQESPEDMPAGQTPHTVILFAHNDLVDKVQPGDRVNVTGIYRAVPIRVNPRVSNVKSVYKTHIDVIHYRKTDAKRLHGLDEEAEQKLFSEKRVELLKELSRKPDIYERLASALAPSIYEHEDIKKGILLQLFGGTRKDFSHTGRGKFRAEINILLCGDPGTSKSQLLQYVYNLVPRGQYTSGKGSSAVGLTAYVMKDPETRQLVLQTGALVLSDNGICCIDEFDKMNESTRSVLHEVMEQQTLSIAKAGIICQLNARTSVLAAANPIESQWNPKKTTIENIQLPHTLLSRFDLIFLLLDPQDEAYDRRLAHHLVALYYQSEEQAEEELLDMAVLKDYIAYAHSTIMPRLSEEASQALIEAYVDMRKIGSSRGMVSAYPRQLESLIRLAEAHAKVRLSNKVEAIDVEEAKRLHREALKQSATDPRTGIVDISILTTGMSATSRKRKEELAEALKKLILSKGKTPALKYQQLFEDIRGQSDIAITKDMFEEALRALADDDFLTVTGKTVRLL

[2] = target: minichromosome maintenance protein MCM7 (human (endogenous in MCF7, MDA-MB-231, HEK293T)) (UniProt P33993)
[3] = target: T2, minichromosome maintenance protein MCM3 (human (endogenous in MCF7, MDA-MB-231, HEK293T)) (UniProt P25205)
T2 sequence: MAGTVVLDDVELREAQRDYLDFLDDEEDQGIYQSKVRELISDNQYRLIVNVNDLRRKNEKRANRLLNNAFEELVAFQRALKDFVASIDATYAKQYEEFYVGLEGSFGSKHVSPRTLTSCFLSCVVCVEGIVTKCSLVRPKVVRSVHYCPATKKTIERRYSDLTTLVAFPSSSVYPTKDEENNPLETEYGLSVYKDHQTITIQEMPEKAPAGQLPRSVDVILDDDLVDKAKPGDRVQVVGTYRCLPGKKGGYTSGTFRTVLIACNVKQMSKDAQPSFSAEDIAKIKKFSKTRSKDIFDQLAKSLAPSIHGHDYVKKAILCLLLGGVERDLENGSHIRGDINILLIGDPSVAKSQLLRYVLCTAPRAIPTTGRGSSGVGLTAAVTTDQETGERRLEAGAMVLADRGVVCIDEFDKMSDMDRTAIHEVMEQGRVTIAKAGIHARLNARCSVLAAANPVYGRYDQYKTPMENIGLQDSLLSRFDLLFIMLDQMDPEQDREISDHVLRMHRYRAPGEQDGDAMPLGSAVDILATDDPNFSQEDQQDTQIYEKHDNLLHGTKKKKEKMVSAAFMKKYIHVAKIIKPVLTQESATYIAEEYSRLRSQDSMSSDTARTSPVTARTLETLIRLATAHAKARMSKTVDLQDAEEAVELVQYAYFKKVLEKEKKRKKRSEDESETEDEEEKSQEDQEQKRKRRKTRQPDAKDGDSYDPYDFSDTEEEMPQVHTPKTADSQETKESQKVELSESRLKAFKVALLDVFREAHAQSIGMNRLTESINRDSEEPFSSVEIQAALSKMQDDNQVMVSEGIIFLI

binding [1]: no binding
binding [2]: binds
binding [3]: binds
B1: HA-tagged OGT (enzyme, UniProt O15294 1-1046)
chain: MASSVGNVADSTEPTKRMLSFQGLAELAHREYQAGDFEAAERHCMQLWRQEPDNTGVLLLLSSIHFQCRRLDRSAHFSTLAIKQNPLLAEAYSNLGNVYKERGQLQEAIEHYRHALRLKPDFIDGYINLAAALVAAGDMEGAVQAYVSALQYNPDLYCVRSDLGNLLKALGRLEEAKACYLKAIETQPNFAVAWSNLGCVFNAQGEIWLAIHHFEKAVTLDPNFLDAYINLGNVLKEARIFDRAVAAYLRALSLSPNHAVVHGNLACVYYEQGLIDLAIDTYRRAIELQPHFPDAYCNLANALKEKGSVAEAEDCYNTALRLCPTHADSLNNLANIKREQGNIEEAVRLYRKALEVFPEFAAAHSNLASVLQQQGKLQEALMHYKEAIRISPTFADAYSNMGNTLKEMQDVQGALQCYTRAIQINPAFADAHSNLASIHKDSGNIPEAIASYRTALKLKPDFPDAYCNLAHCLQIVCDWTDYDERMKKLVSIVADQLEKNRLPSVHPHHSMLYPLSHGFRKAIAERHGNLCLDKINVLHKPPYEHPKDLKLSDGRLRVGYVSSDFGNHPTSHLMQSIPGMHNPDKFEVFCYALSPDDGTNFRVKVMAEANHFIDLSQIPCNGKAADRIHQDGIHILVNMNGYTKGARNELFALRPAPIQAMWLGYPGTSGALFMDYIITDQETSPAEVAEQYSEKLAYMPHTFFIGDHANMFPHLKKKAVIDFKSNGHIYDNRIVLNGIDLKAFLDSLPDVKIVKMKCPDGGDNADSSNTALNMPVIPMNTIAEAVIEMINRGQIQITINGFSISNGLATTQINNKAATGEEVPRTIIVTTRSQYGLPEDAIVYCNFNQLYKIDPSTLQMWANILKRVPNSVLWLLRFPAVGEPNIQQYAQNMGLPQNRIIFSPVAPKEEHVRRGQLADVCLDTPLCNGHTTGMDVLWAGTPMVTMPGETLASRVAASQLTCLGCLELIAKNRQEYEDIAVKLGTDLEYLKKVRGKVWKQRISSPLFNTKQYTMELERLYLQMWEHYAAGNKPDHMIKPVEVTESA
